The values that follow come from PubChem BioAssay (NCI).

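Each compound was tested at five concentrations against cells in 96-well plates for 48 hours. At the GI50, growth is halved. TGI is the concentration that stops growth completely.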

The assay relates to NCI-H322M lung. As to the kind of experiment: growth of human tumour cells (NCI), 48 h.
Regarding `N[C@@H](CSSC[C@H](N)C(=O)Nc1ccc(OCC2CCCC2)cc1)C(=O)Nc1ccc(OCC2CCCC2)cc1`, the GI50 is 0.191 µM and the TGI is 0.434 µM.

As to `CC1=C(CCC=O)C2=C(C)C3(CC3)[C@@](C)(O)C(=O)C2=C1`, the GI50 was 0.182 µM and the TGI is 0.552 µM.

`Cc1noc2c(Cc3ccccc3)nn(CC(=O)N/N=C/c3ccc(Cl)cc3)c(=O)c12`: the GI50 was 6.07 µM and the TGI was greater than 100 µM.

Consider `N#Cc1ccc(C(=O)CSc2nc3c(c(Nc4ccc(S(N)(=O)=O)cc4)n2)CCC3)cc1`, for which the GI50 was greater than 22.5 µM and the TGI was greater than 22.5 µM.

For `N#Cc1c(-c2ccc(Cl)cc2)nc2n[nH]c(-c3ccc(Cl)cc3)c2c1-c1ccc(C(F)(F)F)cc1`, the GI50 is 2.4 µM and the TGI amounted to 13.2 µM.

Turning to `C#C[C@]1(O)CC[C@H]2[C@@H]3CC=C4c5sc(Nc6ccc(C(F)(F)F)cn6)nc5CC[C@]4(C)[C@H]3CC[C@@]21C`, the GI50 was 7.19 µM and the TGI worked out at 39.1 µM.
